# The supplement of paper PMC8728848
# Some of the results follow.
# Experiments:
# Experiment in all cases: glycan array binding signal (z-score within array); higher = stronger binding
# Settings in all cases: glycan notation: IUPAC condensed, linker removed
# Gal(a1-3)Gal(b1-4)GlcNAc = molecular target: Gal(a1-3)Gal(b1-4)GlcNAc
# Outline: (§1)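 Negative Z-scores can be read as non-binding. The Z-score is calculated within each array and then averaged across arrays of one protein sequence at different concentrations or buffers and across linkers. Arrays, 3228 in all, were curated from the Consortium for Functional Glycomics database and kept only where the protein sequence was available.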
# [1] = molecular target: Gal(a1-3)Gal(b1-4)GlcNAc(b1-2)Man
# Outline: as §1
# [2] = molecular target: Gal(a1-3)Gal(b1-4)GlcNAc(b1-2)Man(a1-3)[Gal(a1-3)Gal(b1-4)GlcNAc(b1-2)Man(a1-6)]Man(b1-4)GlcNAc(b1-4)GlcNAc
# Outline: as §1
# [3] = molecular target: Gal(a1-3)Gal(b1-4)GlcNAc(b1-3)GalNAc
# Outline: as §1
# [4] = molecular target: Gal(a1-3)Gal(b1-4)GlcNAc(b1-6)GalNAc
# Outline: as §1
# [5] = molecular target: Gal(a1-3)Gal(b1-4)[Fuc(a1-3)]GlcNAc
# Outline: as §1
# [6] = molecular target: Gal(a1-3)Gal(b1-4)[Fuc(a1-3)]GlcNAc(b1-2)Man(a1-3)[Gal(a1-3)Gal(b1-4)[Fuc(a1-3)]GlcNAc(b1-2)Man(a1-6)]Man(b1-4)GlcNAc(b1-4)GlcNAc
# Outline: as §1
# Gal(a1-3)GalNAc = molecular target: Gal(a1-3)GalNAc
# Outline: as §1
# [7] = molecular target: Gal(a1-3)[Gal(a1-4)]Gal(b1-4)GlcNAc
# Outline: as §1
# [8] = molecular target: Gal(a1-4)Gal(b1-3)GlcNAc(b1-2)Man(a1-3)[Gal(a1-4)Gal(b1-3)GlcNAc(b1-2)Man(a1-6)]Man(b1-4)GlcNAc(b1-4)GlcNAc
# Outline: as §1
# Gal(a1-4)Gal(b1-4)Glc = molecular target: Gal(a1-4)Gal(b1-4)Glc
# Outline: as §1
# Gal(a1-4)Gal(b1-4)GlcNAc = molecular target: Gal(a1-4)Gal(b1-4)GlcNAc
# Outline: as §1
# [9] = molecular target: Gal(a1-4)Gal(b1-4)GlcNAc(b1-2)Man(a1-3)[Gal(a1-4)Gal(b1-4)GlcNAc(b1-2)Man(a1-6)]Man(b1-4)GlcNAc(b1-4)GlcNAc
# Outline: as §1
# [10] = molecular target: Gal(a1-4)Gal(b1-4)GlcNAc(b1-3)Gal(b1-4)Glc
# Outline: as §1
# Gal(a1-4)GlcNAc = molecular target: Gal(a1-4)GlcNAc
# Outline: as §1
# Gal(a1-6)Glc = molecular target: Gal(a1-6)Glc
# Outline: as §1
# Gal(b1-2)Gal = molecular target: Gal(b1-2)Gal
# Outline: as §1
# Gal(b1-3)Gal = molecular target: Gal(b1-3)Gal
# Outline: as §1
# Gal(b1-3)Gal(b1-4)GlcNAc = molecular target: Gal(b1-3)Gal(b1-4)GlcNAc
# Outline: as §1
# [11] = molecular target: Gal(b1-3)Gal(b1-4)GlcNAc(b1-2)Man(a1-3)[Gal(b1-3)Gal(b1-4)GlcNAc(b1-2)Man(a1-6)]Man(b1-4)GlcNAc(b1-4)GlcNAc
# Outline: as §1
# Gal(b1-3)GalNAc = molecular target: Gal(b1-3)GalNAc
# Outline: as §1
# [12] = molecular target: Gal(b1-3)GalNAc(a1-3)[Fuc(a1-2)]Gal(b1-4)Glc
# Outline: as §1
# [13] = molecular target: Gal(b1-3)GalNAc(a1-3)[Fuc(a1-2)]Gal(b1-4)GlcNAc
# Outline: as §1
# Gal(b1-3)GalNAc(b1-3)Gal = molecular target: Gal(b1-3)GalNAc(b1-3)Gal
# Outline: as §1
# [14] = molecular target: Gal(b1-3)GalNAc(b1-3)Gal(a1-4)Gal(b1-4)Glc
# Outline: as §1
# [15] = molecular target: Gal(b1-3)GalNAc(b1-4)Gal(b1-4)Glc
# Outline: as §1
# [16] = molecular target: Gal(b1-3)GalNAc(b1-4)Gal3S(b1-4)Glc
# Outline: as §1
# [17] = molecular target: Gal(b1-3)GalNAc(b1-4)[Neu5Ac(a2-3)]Gal(b1-4)Glc
# Outline: as §1
# [18] = molecular target: Gal(b1-3)GalNAc(b1-4)[Neu5Gc(a2-3)]Gal(b1-4)Glc
# Outline: as §1
# Gal(b1-3)GlcNAc = molecular target: Gal(b1-3)GlcNAc
# Outline: as §1
# [19] = molecular target: Gal(b1-3)GlcNAc(a1-3)Gal(b1-4)GlcNAc
# Outline: as §1
# [20] = molecular target: Gal(b1-3)GlcNAc(a1-6)Gal(b1-4)GlcNAc
# Outline: as §1
# Gal(b1-3)GlcNAc(b1-2)Man = molecular target: Gal(b1-3)GlcNAc(b1-2)Man
# Outline: as §1
# [21] = molecular target: Gal(b1-3)GlcNAc(b1-2)Man(a1-3)[Gal(b1-3)GlcNAc(b1-2)Man(a1-6)]Man(b1-4)GlcNAc(b1-4)GlcNAc
# Outline: as §1
# [22] = molecular target: Gal(b1-3)GlcNAc(b1-2)Man(a1-3)[Gal(b1-3)GlcNAc(b1-2)Man(a1-6)]Man(b1-4)GlcNAc(b1-4)[Fuc(a1-6)]GlcNAc
# Outline: as §1
# [23] = molecular target: Gal(b1-3)GlcNAc(b1-2)Man(a1-3)[GlcNAc(b1-4)][Gal(b1-3)GlcNAc(b1-2)Man(a1-6)]Man(b1-4)GlcNAc(b1-4)GlcNAc
# Outline: as §1
# [24] = molecular target: Gal(b1-3)GlcNAc(b1-2)[Gal(b1-3)GlcNAc(b1-6)]Man(a1-6)[Gal(b1-3)GlcNAc(b1-2)Man(a1-3)]Man(b1-4)GlcNAc(b1-4)GlcNAc
# Outline: as §1
# [25] = molecular target: Gal(b1-3)GlcNAc(b1-3)Gal(b1-3)GlcNAc
# Outline: as §1
binder,measurement,setting,value
"PNA (Arachis hypogaea), P02872 (protein) MKPFCVFLTFFLLLAASSKKVDSAETVSFNFNSFSEGNPAINFQGDVTVLSNGNIQLTNLNKVNSVGRVLYAMPVRIWSSATGNVASFLTSFSFEMKDIKDYDPADGIIFFIAPEDTQIPAGSIGGGTLGVSDTKGAGHFVGVEFDTYSNSEYNDPPTDHVGIDVNSVDSVKTVPWNSVSGAVVKVTVIYDSSTKTLSVAVTNDNGDITTIAQVVDLKAKLPERVKFGFSASGSLGGRQIHLIRSWSFTSTLITTTRRSIDNNEKKIMNMASA",glycan array binding signal (z-score),Gal(a1-3)Gal(b1-4)GlcNAc,-0.178
same,glycan array binding signal (z-score),[1],-0.115
same,glycan array binding signal (z-score),[2],-0.117
same,glycan array binding signal (z-score),[3],-0.181
same,glycan array binding signal (z-score),[4],-0.22
same,glycan array binding signal (z-score),[5],-0.091
same,glycan array binding signal (z-score),[6],-0.213
same,glycan array binding signal (z-score),Gal(a1-3)GalNAc,-0.112
same,glycan array binding signal (z-score),[7],-0.127
same,glycan array binding signal (z-score),[8],-0.16
same,glycan array binding signal (z-score),Gal(a1-4)Gal(b1-4)Glc,-0.161
same,glycan array binding signal (z-score),Gal(a1-4)Gal(b1-4)GlcNAc,-0.177
same,glycan array binding signal (z-score),[9],-0.05
same,glycan array binding signal (z-score),[10],-0.15
same,glycan array binding signal (z-score),Gal(a1-4)GlcNAc,-0.157
same,glycan array binding signal (z-score),Gal(a1-6)Glc,-0.176
same,glycan array binding signal (z-score),Gal(b1-2)Gal,-0.173
same,glycan array binding signal (z-score),Gal(b1-3)Gal,0.397
same,glycan array binding signal (z-score),Gal(b1-3)Gal(b1-4)GlcNAc,-0.001
same,glycan array binding signal (z-score),[11],0.074
same,glycan array binding signal (z-score),Gal(b1-3)GalNAc,1.37
same,glycan array binding signal (z-score),[12],6
same,glycan array binding signal (z-score),[13],8.53
same,glycan array binding signal (z-score),Gal(b1-3)GalNAc(b1-3)Gal,5.33
same,glycan array binding signal (z-score),[14],3.33
same,glycan array binding signal (z-score),[15],7.85
same,glycan array binding signal (z-score),[16],9.11
same,glycan array binding signal (z-score),[17],3.91
same,glycan array binding signal (z-score),[18],4.74
same,glycan array binding signal (z-score),Gal(b1-3)GlcNAc,-0.146
same,glycan array binding signal (z-score),[19],-0.49
same,glycan array binding signal (z-score),[20],-0.195
same,glycan array binding signal (z-score),Gal(b1-3)GlcNAc(b1-2)Man,-0.159
same,glycan array binding signal (z-score),[21],-0.12
same,glycan array binding signal (z-score),[22],-0.147
same,glycan array binding signal (z-score),[23],-0.227
same,glycan array binding signal (z-score),[24],-0.191
same,glycan array binding signal (z-score),[25],-0.166
